Source: paper PMC4336329 (PLoS ONE, 2015)
Hit rate of the full screen: of about 310,000 compounds, about 14,000 (4.5%) showed an effect of 50% or more. Effects have a minus sign here. The list shows a part of the results.

target: human ether-à-go-go-related gene (hERG) potassium channel (human, UniProt Q12809); assay: primary screen, population patch clamp on CHO cells stably expressing hERG
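Note: peak tail current of the secondary pulse compared with the same well before compound.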

Sequence of human ether-à-go-go-related gene (hERG) potassium channel (Q12809 whole entry, looked up): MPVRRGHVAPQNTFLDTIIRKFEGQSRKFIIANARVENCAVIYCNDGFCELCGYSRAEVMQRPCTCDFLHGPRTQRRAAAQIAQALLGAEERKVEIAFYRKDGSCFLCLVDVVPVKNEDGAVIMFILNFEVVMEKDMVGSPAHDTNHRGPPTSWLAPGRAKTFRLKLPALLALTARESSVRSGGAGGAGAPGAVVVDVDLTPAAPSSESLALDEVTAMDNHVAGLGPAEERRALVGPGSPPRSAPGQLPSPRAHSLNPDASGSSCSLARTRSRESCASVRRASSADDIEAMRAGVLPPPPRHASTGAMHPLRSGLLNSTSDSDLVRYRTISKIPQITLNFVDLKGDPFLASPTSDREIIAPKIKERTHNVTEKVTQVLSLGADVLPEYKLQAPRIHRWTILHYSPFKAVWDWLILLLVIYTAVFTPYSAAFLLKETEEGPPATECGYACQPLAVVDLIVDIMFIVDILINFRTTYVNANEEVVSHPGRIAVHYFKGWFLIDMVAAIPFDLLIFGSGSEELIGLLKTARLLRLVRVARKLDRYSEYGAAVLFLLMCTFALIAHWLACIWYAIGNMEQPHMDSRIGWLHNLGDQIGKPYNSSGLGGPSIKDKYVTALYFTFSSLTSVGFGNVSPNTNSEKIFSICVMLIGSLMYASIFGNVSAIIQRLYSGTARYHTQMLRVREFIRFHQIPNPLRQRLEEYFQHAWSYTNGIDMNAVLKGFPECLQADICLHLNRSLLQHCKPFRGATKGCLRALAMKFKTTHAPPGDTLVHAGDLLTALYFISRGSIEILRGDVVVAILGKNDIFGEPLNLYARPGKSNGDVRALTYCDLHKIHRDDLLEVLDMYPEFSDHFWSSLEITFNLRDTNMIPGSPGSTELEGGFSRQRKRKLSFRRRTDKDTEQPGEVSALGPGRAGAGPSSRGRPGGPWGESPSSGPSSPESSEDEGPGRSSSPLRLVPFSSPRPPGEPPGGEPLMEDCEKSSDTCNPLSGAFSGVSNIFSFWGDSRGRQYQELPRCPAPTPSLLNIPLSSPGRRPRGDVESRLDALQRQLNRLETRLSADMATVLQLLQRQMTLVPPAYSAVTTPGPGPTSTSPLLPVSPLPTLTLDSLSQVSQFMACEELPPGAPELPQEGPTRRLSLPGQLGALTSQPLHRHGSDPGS

Structure (SMILES)	hERG current change (%, negative = inhibition) at 10uM
Cc1ccc(-c2nc(C#N)c(N3CCC(C)CC3)o2)cc1	17.5%
O=C(COc1ccccc1)Nc1nnc(-c2ccc3c(c2)CCCC3)o1	9.37%
CCOC(=O)CNC(=O)/C=C/c1ccc2c(c1)OCO2	16.4%
CC(C)C(NC(=O)OCc1ccccc1)C(=O)OCC(=O)NCc1ccco1 (stereo not drawn)	4.89%
CC/C(=N\NC(=O)c1ccccc1O)c1c(O)n(C2CCCCC2)c(=O)[nH]c1=O	13.9%
CCCCCn1c(=O)c2ccccc2n2c(=S)[nH]nc12	4.97%
CCOC(=O)C(C)n1nc(/C=C/c2ccc(OC)cc2)ccc1=O (stereo not drawn)	-19.7%
C=CCn1c(COc2ccccc2)nnc1SCC(=O)O	-3.46%
CC(=O)Nc1ccc(NC(=O)c2ccc([N+](=O)[O-])cc2Cl)cc1	6.15%
Cc1cc(=O)oc(C)c1C(=O)Nc1cccc2ccccc12	-2.06%
CS(=O)(=O)N(CC(=O)Nc1cccc(Cl)c1Cl)c1ccccc1	-6.78%
CN(C)c1ccc(/C=N\NC(=O)c2cccc3cc[nH]c23)cc1	4.25%
C/C(=C\C(=O)c1ccc(C)o1)Nc1ccc(C(=O)O)cc1C	8.31%
CCn1c(SCC(=O)C(C)(C)C)nnc1-c1ccccc1OC	10.9%
O=C1CN(CC(=O)N2CCCCC2)c2ccccc2O1	10.5%
C/C=C/C(=O)N1CC2(CC(c3cccc(NC(=O)/C(C)=C/C)c3)=NO2)C[C@H]1C(N)=O (stereo partly drawn)	-1.21%
CS(=O)(=O)O.NC1C2CN(c3nc4c(cc3F)c(=O)c(C(=O)O)cn4-c3ccc(F)cc3F)CC12 (stereo not drawn)	-8.13%
Cc1cccc2sc(NNC(=O)c3ccc4c(c3)OCCO4)nc12	-21.5%
CN(C)CCC(O)c1ccccc1 (stereo not drawn)	9.45%
O=C(CN1C(=O)NC2(CCCC2)C1=O)Nc1nc2ccccc2s1	-3.9%
Cc1nc(C)c(C(=O)N/N=C/c2c[nH]c3ccccc23)s1	21.8%
CCn1cc(C(=O)NCCCOC(C)C)c2cc(OC)c(OC)cc2c1=O	-0.903%
O=C(c1ccc(COc2ccccc2Cl)o1)N1CCN(Cc2ccc3c(c2)OCO3)CC1	-4.94%

Structure (SMILES)	hERG current change (%, negative = inhibition) at 10uM
c1ccc(CCNc2c3c(nc4ncnn24)CCC3)cc1	-25.7%
CC(=O)N/C(=C\c1ccccc1)C(=O)OCc1ccc(F)cc1	-0.974%
Cc1cccc(OCc2nnc(NC(=O)c3cccs3)s2)c1	1.62%
O=C(CCS(=O)(=O)Cc1ccccc1)Nc1nncs1	22.1%
Cc1ccc([C@@H]2[C@@H]3C(=O)N(C)C(=O)[C@@H]3[C@]3(Cc4ccccc4)C(=O)N(Cc4ccccc4)CC(=O)N23)o1	-5.8%
COC(=O)c1c(C)[nH]c(C)c1-c1cccc([N+](=O)[O-])c1	3.91%
Cc1ccc2c(CN(C)Cc3ccc(Cl)cc3Cl)cc(=O)oc2c1	-8.5%
Cc1cccc(N(CC(=O)NCCSCc2ccco2)S(=O)(=O)c2ccccc2)c1	-35.1%
COc1cc([N+](=O)[O-])cc2sc(NC(C)=O)nc12	-0.654%
C/C(CC(=O)NCc1ccco1)=N\NC(=O)c1ccc([N+](=O)[O-])cc1Cl	10.5%
CC(NC(=O)c1cc(=O)[nH]c2ccc(Br)cc12)c1ccccc1 (stereo not drawn)	8.69%
O=C(Nc1nnc(-c2cccs2)o1)c1ccco1	-6.36%
Cc1ccc(S(=O)(=O)NC2CC3CCC2C3)cc1 (stereo not drawn)	-1.07%
Cc1ccnc(SCCn2c(N3CCOCC3)nc3c2c(=O)[nH]c(=O)n3C)n1	-24.7%
O=C(CSc1ccc(S(=O)(=O)N2CCCCC2)cn1)Nc1ccccc1Br	-34.3%
O=C(NC1CCSc2ccccc21)c1cc(S(=O)(=O)N2CCOCC2)ccc1Cl (stereo not drawn)	-18%
Cn1nnc(NC(=O)CSc2ccc(Cl)cc2)n1	6.02%
COc1ccc(C(=O)NCc2cccnc2)cc1Br	6.79%
CC(C)C(NC(=O)C(NC(=O)C1O[C@@H]2OC(C)(C)O[C@@H]2[C@H]2OC(C)(C)O[C@@H]12)C(C)C)C(=O)O (stereo partly drawn)	6.23%
CCC(Sc1nccn1C)C(=O)Nc1cccc2ccccc12 (stereo not drawn)	7.42%
CNC(=O)c1nc(C)n(-c2cc(Cl)cc(Cl)c2)n1	5.34%
O=C1CN(S(=O)(=O)c2ccc(Cl)cc2C(F)(F)F)CCN1	-4.17%
